The values below come from ChEMBL document CHEMBL4888484, “Replenishing the malaria drug discovery pipeline: Screening and hit evaluation of the MMV Hit Generation Library 1 (HGL1) against asexual blood stage Plasmodium falciparum ,using a nano luciferase reporter read-out” (2022).

The whole screen tested about 150,000 compounds, of which about 540 (0.36%) showed an effect of 50% or more. Some of the results follow.

The assay has as its system Plasmodium falciparum. The assay is described as follows: Primary screen in NF54 nanoGlo assay, in single point, at 2uM, 72h; a lower Z score goes with more inhibition. It counts as functional, Erythrocyte. The note with it: timepoint 72 hour.
The % Inhibition is the drop in the measured response relative to a control, in per cent. Turning to `Cn1ccnc1[C@@H](NCCNc1ccccn1)C1CC1`, the “% Inhibition” value is listed as -7% and the Z score came out at 0.88.

Regarding `CCn1nccc1C(=O)N1C2CCC1Cn1c(nn(Cc3ccccc3)c1=O)C2` (stereo not drawn), the “% Inhibition” value is listed as 5% and the Z score is reported as -0.64.

Turning to `CC(C)(C)CN1C[C@@H](NCc2ncc[nH]2)CC1=O`, the “% Inhibition” value was -12% and the Z score was 1.52.

For the molecule `COc1nc(NC(=O)c2cc3ccccc3o2)n[nH]1`, the “% Inhibition” value is -9% and the Z score is given as 1.87.

Consider `CCOc1ccc([C@H]2CC(=O)Nc3c(S(=O)(=O)c4cccc(C)c4)csc32)cc1OC`, for which the “% Inhibition” value is listed as -15% and the Z score is on record as 1.55.

For the molecule `O=C(CS(=O)(=O)c1ccc2ccccc2c1)N(c1ccccc1)c1ccccc1`, the “% Inhibition” value is on record as 0% and the Z score was -0.05.

As for `Cc1nc2c(c(NCc3ccccc3Cl)n1)CCC2`, the “% Inhibition” value is 2% and the Z score was -0.24.

`CCOCCN1CCN(C(=O)C2CCS(=O)(=O)CC2)C[C@@H]1C`: the “% Inhibition” value amounted to 4% and the Z score is given as -0.5.

For the molecule `COCCCCS(=O)(=O)NC1CC2CCCc3cccc1c32` (stereo not drawn), the “% Inhibition” value was -1% and the Z score is given as 0.07.

Take `O=C(c1ccc2c(c1)OCO2)N1Cc2cccnc2C1`: the “% Inhibition” value is given as -8% and the Z score worked out at 0.98.

In the case of `CCn1nncc1CNC(=O)Nc1cc(C(F)(F)F)nn1C`, the “% Inhibition” value is listed as -3% and the Z score is 0.4.

Take `O=C(NCC1(O)CCC1)[C@H]1CCn2cncc2C1`: the “% Inhibition” value is -8% and the Z score was 1.39.

With `CCC1C(c2ccc(C)cc2)CCN1C(=O)c1nc(=O)[nH][nH]1` (stereo not drawn), the “% Inhibition” value is recorded as -2% and the Z score is 0.19.

Consider `CCc1cnc(CN2CCC(OC3CCC3)CC2)s1`, for which the “% Inhibition” value is given as -7% and the Z score is listed as 0.94.

Consider `CC(C)(C)c1ccc(-c2nn3c(nc2=O)-c2ccccc2N[C@]3(C)c2ccc(Cl)cc2)cc1`, for which the “% Inhibition” value is -5% and the Z score is 0.65.

On to `Cc1cnc(CCNC(=O)c2cn(C)cn2)n1C1CCCCCCC1`, for which the “% Inhibition” value was 3% and the Z score is listed as -0.47.

For the molecule `Cc1sc(CCNC(=O)NC2CC2)nc1-c1ccccc1`, the “% Inhibition” value was -2% and the Z score is 0.25.

Consider `CN(C)Cc1nnc([C@H]2C[C@@H](NC(=O)c3cnc4ccccc4n3)C2)n1C`, for which the “% Inhibition” value is listed as -11% and the Z score was 1.79.

For `O=C(c1ccccc1F)N1CCN(c2nc(-c3ccc(Cl)cc3)no2)CC1`, the “% Inhibition” value is reported as 5% and the Z score is recorded as -0.76.

On to `CCn1ccc2c(CN3CCC4(CC3)CNC(=O)C4)cccc21`, for which the “% Inhibition” value is recorded as -1% and the Z score is 0.22.

As to `O=C(c1cc[nH]c(=O)c1)N1CCC[C@H]1c1ccc(Cl)c(Cl)c1`, the “% Inhibition” value is recorded as -1% and the Z score is listed as 0.21.

For `O=C(NC1CC2CC1C1CCCC21)N1CCC(C(=O)N2CCCC2)C1` (stereo not drawn), the “% Inhibition” value was -20% and the Z score came out at 2.61.

`COc1ccc(NCc2ccc3c(c2)OCCO3)cn1`: the “% Inhibition” value is reported as -2% and the Z score was found to be 0.29.

For the molecule `O=C(NCCc1cccnc1)c1ccncc1F`, the “% Inhibition” value is reported as -7% and the Z score is listed as 1.24.

Take `COCc1nsc(N2CCN(Cc3ccccc3Cl)CC2)n1`: the “% Inhibition” value is -11% and the Z score was 1.45.

Turning to `CC(C)(C)CC1(NC(=O)CCc2cn[nH]c2)CC1`, the “% Inhibition” value is -17% and the Z score is 2.2.

Take `COc1ccc(O)c([C@H](C)NCc2nnc3n2CCCCC3)c1`: the “% Inhibition” value is reported as -8% and the Z score was 0.75.

Turning to `CCC[C@H]1CN(C(C)=O)C[C@@H]1NC(=O)c1c(C)cccc1OC`, the “% Inhibition” value is recorded as -8% and the Z score is 1.3.

As to `O=S(=O)(NCc1ccccc1-c1ccsc1)c1ccccc1`, the “% Inhibition” value is -8% and the Z score was determined as 1.51.

Regarding `Cn1ccc([C@H]2CCCN(C(=O)c3cccc(-n4cnnn4)c3)C2)n1`, the “% Inhibition” value was -20% and the Z score is given as 2.36.

Regarding `COCC(C)(C)C(=O)N1CC[C@H](O)C(F)(F)C1`, the “% Inhibition” value is recorded as -11% and the Z score is reported as 1.98.

With `Cc1noc2nc(CCC(=O)NCc3cccnc3)nc(N3CCCCC3)c12`, the “% Inhibition” value was -11% and the Z score is given as 1.7.

As for `c1csc(-c2nnc(-c3ccc4ccccc4c3)c3nocc23)c1`, the “% Inhibition” value is -8% and the Z score is reported as 0.9.

On to `CC(=O)c1cccc(NC(=O)CNC(C)(C)C(C)(C)O)c1`, for which the “% Inhibition” value was -5% and the Z score is reported as 0.86.

Regarding `CN(C(=O)NCCc1nccn1Cc1ccccc1)C1CCC(C)(C)CC1`, the “% Inhibition” value is reported as -1% and the Z score worked out at 0.18.

In the case of `CCNC(=O)N(Cc1ccc(F)cc1)Cc1cc(NC(=O)CC)ccc1N(C)C`, the “% Inhibition” value is -18% and the Z score was determined as 3.48.

Take `CCCc1cnc(C)nc1-c1ccnc2c1ccn2C`: the “% Inhibition” value is given as -4% and the Z score stood at 0.73.

With `Cc1cc(S(=O)(=O)N2CC(=O)Nc3cccnc32)sc1Cl`, the “% Inhibition” value is -3% and the Z score came out at 0.55.

Take `Cc1ccc(CNC(=O)c2c(C)oc3ccn(Cc4cccc(F)c4)c(=O)c23)cc1`: the “% Inhibition” value turned out to be 7% and the Z score is reported as -1.07.

Regarding `Cc1noc(C)c1S(=O)(=O)NC[C@@H](c1ccco1)N1CCCC1`, the “% Inhibition” value turned out to be 35% and the Z score is reported as -3.92.

Consider `CCC[C@H]1CN(Cc2cnc(-c3cccc(C)c3)nc2)C[C@@H]1NC(C)=O`, for which the “% Inhibition” value stood at 7% and the Z score is -1.

In the case of `CC(NS(=O)(=O)CC(C)C(C)(C)C)c1nncn1C` (stereo not drawn), the “% Inhibition” value is given as -8% and the Z score stood at 0.88.

Turning to `Cc1noc(C)c1S(=O)(=O)NCc1cnn2ccccc12`, the “% Inhibition” value is on record as -6% and the Z score is recorded as 1.09.

`CCC(NC(=O)Cc1ccc(C)c(C)c1)[C@H]1C[C@H](O)C1` (stereo partly drawn): the “% Inhibition” value is -1% and the Z score amounted to 0.14.
